# ± gives the standard deviation of the averaged measurements. In all, about 33,000 sequences were measured (“E-score (dimensionless, -0.5 to 0.5)”: median about -0.046, highest 2% from about 0.36 on). The list shows a part of the results.
# System: T1, SpTbr T-box DNA-binding domain (GST fusion)
# T1 sequence: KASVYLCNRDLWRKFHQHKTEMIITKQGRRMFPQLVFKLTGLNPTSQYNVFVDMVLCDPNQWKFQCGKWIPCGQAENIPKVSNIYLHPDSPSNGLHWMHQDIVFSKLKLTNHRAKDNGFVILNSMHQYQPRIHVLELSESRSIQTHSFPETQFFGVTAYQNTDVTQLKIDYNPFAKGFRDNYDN
# Experiment: PBM E-score of 8-mer (E-score (dimensionless, -0.5 to 0.5)); Tbr is Tbrain of the sea star Patiria miniata (Pm) or the sea urchin Strongylocentrotus purpuratus (Sp); higher = stronger binding preference; most listed sequences are background and not binding sites
# Conditions: the construct has about 5 more residues each side
# How it was run: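 Expression of GST-fused Tbr T-box DNA-binding domains, each holding the full T-box plus roughly five flanking residues, was carried out in BL21 E. coli at 20 °C, with purification by glutathione affinity chromatography. Universal Agilent arrays made double-stranded by primer extension were incubated with the protein at 200 nM in PBS (pH 7.5), then scanned and quantified. All ungapped 8-mers were scored from probe intensities, and each received an enrichment E-score from the Universal PBM Analysis Suite, averaged over duplicate arrays.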
row,Sequence,PBM E-score of 8-mer
1,GCGTTCAA,-0.166 ± 0.13
2,ATAAGCCG,-0.168 ± 0.056
3,CTCGTTCA,0.0405 ± 0.033
4,CCAGTTAC,-0.149 ± 0.009
5,ATCCCAGG,-0.18 ± 0.078
6,CCTAAAAA,-0.0876 ± 0.039
7,TGGCAAAA,0.0945 ± 0.032
8,ACAATTAT,-0.0335 ± 0.045
9,ATTTGTGG,0.075 ± 0.012
10,ACCAGACT,-0.1941 ± 0.0019
11,ACGAAGTG,0.229 ± 0.016
12,ACAGCCTA,0.0885 ± 0.08
13,ATCAACTG,-0.0351 ± 0.043
14,AAGAGGTC,-0.128 ± 0.01
15,GCCGTTAA,0.105 ± 0.032
16,ACATAGCG,-0.0402 ± 0.04
17,CTTTGCAC,0.212 ± 0.03
18,CAGGAGAC,-0.112 ± 0.056
19,GCATCCTA,-0.126 ± 0.048
20,GAAGAGCC,-0.127 ± 0.028
21,AGTCCGTA,-0.286 ± 0.028
22,CCCCTATC,-0.132 ± 0.09
23,ACCGCACG,-0.00319 ± 0.0013
24,ACTCGCAC,0.394 ± 0.035
25,ATATAGTG,0.074 ± 0.0098

row,Sequence,PBM E-score of 8-mer
1,CCCGTCGG,0.0199 ± 0.048
2,GTTCACTA,-0.0482 ± 0.02
3,CAATTGCG,0.12 ± 0.013
4,AATGTTCC,-0.162 ± 0.021
5,AGGTCATC,0.0583 ± 0.033
6,GCCCCAAC,0.133 ± 0.059
7,AAAGGTTC,-0.076 ± 0.017
8,TCAGTGCA,-0.101 ± 0.038
9,AAGGGAAG,-0.247 ± 0.0075
10,CTTGGTCC,-0.164 ± 0.035
11,CACAACAG,0.198 ± 0.0064
12,AGAATACG,-0.14 ± 0.0038
13,GAACACAC,0.209 ± 0.017
14,CAGCAGGA,-0.254 ± 0.023
15,AACCGGGA,-0.0882 ± 0.057
16,CAATGGTC,-0.185 ± 0.041
17,CAAATCCG,-0.119 ± 0.048
18,AAGGTGTA,0.394 ± 0.023
19,CACTGCCA,0.17 ± 0.038
20,AAAGCATT,-0.0192 ± 0.029
21,CCATGCAA,-0.101 ± 0.0018
22,GCGACTAC,0.055 ± 0.036
23,ACAACTCC,0.182 ± 0.015
24,ACTGGCTG,-0.0323 ± 0.042
25,GGGGGACC,-0.185 ± 0.096

row,Sequence,PBM E-score of 8-mer
1,CGATCTAA,-0.0809 ± 0.0036
2,AACCCAGT,-0.292 ± 0.062
3,AGAAGTTC,-0.0174 ± 0.053
4,CTATACGC,-0.261 ± 0.0047
5,CTGCTTCC,-0.139 ± 0.054
6,ATAATGGC,0.0226 ± 0.052
7,GTCGAAAA,-0.0421 ± 0.02
8,AATGCTCC,0.0107 ± 0.031
9,AGCCTGGG,-0.271 ± 0.052
10,CAACCTAG,-0.0248 ± 0.069
11,CAGTCCCA,-0.00619 ± 0.015
12,ATCCGGGG,0.0212 ± 0.048
13,AATTAACA,0.244 ± 0.035
14,TGGCGACA,0.326 ± 0.004
15,TAAAACTA,-0.00768 ± 0.057
16,AGCTGTGA,0.393 ± 0.0083
17,CTTTAGTA,-0.0569 ± 0.065
18,AGAATGAT,0.0861 ± 0.0031
19,AAGTACTC,-0.0747 ± 0.031
20,CAATAGTA,-0.203 ± 0.068
21,AAATCCAG,-0.026 ± 0.028
22,GTTCGTAA,-0.154 ± 0.093
23,GTTGTCCA,0.0924 ± 0.018
24,GACCAGGC,0.0346 ± 0.039
25,ACGCTTAT,0.0247 ± 0.035

row,Sequence,PBM E-score of 8-mer
1,AGATTAGC,0.0489 ± 0.043
2,GTGCAGAA,0.0173 ± 0.025
3,AGAGACAG,-0.19 ± 0.0077
4,ATAGGGTA,0.103 ± 0.052
5,GAGTCCTA,-0.117 ± 0.0018
6,AAGGTCAA,-0.186 ± 0.022
7,AACTCCAC,0.145 ± 0.025
8,GCAGAGCA,-0.245 ± 0.044
9,CTTGCGAC,0.27 ± 0.012
10,ATTTGGAA,-0.169 ± 0.095
11,TAATTCCA,-0.186 ± 0.081
12,CTAGGATC,-0.255 ± 0.035
13,GCTTAACA,0.169 ± 0.073
14,CGGCCCCA,-0.0162 ± 0.12
15,ATCGAGCC,-0.119 ± 0.01
16,TCGGTGCA,-0.0526 ± 0.055
17,CTCACATA,0.157 ± 0.034
18,TAGTGGAA,0.058 ± 0.077
19,TGAAGGCA,-0.14 ± 0.031
20,CATGCATA,-0.219 ± 0.025
21,CGGCGATC,-0.0987 ± 0.068
22,CCGGCAGA,-0.199 ± 0.035
23,GCGCCGGA,0.00717 ± 0.07
24,CACGAGAA,0.209 ± 0.031
25,GACCTAGC,-0.00539 ± 0.06

row,Sequence,PBM E-score of 8-mer
1,GCGGTTAA,-0.00135 ± 0.0032
2,CTCGTGAA,0.307 ± 0.02
3,CCATCGGA,-0.285 ± 0.055
4,GCTTTTAC,-0.0958 ± 0.063
5,GTGAACGA,0.254 ± 0.029
6,AGAGGCCG,-0.067 ± 0.071
7,ATATAAAA,-0.0476 ± 0.066
8,CCGGCACA,-0.0242 ± 0.055
9,ACGGTTTA,0.0625 ± 0.042
10,ACTTATCT,0.019 ± 0.058
11,ATTGATGC,0.0185 ± 0.0036
12,GCATAACA,0.191 ± 0.034
13,CGATCGAG,-0.0942 ± 0.06
14,CTGAATCA,-0.144 ± 0.036
15,GCATGGAC,-0.256 ± 0.056
16,CAGACCGG,-0.142 ± 0.043
17,CGAGACAC,0.121 ± 0.082
18,GTTGTTTA,0.0875 ± 0.017
19,AGGCCAAC,-0.0875 ± 0.028
20,ACTCTAGA,0.0954 ± 0.0087
21,ATCTTGGA,-0.0268 ± 0.014
22,GCGGCCGC,0.0117 ± 0.081
23,ACGAAGTC,0.00736 ± 0.1
24,ACACTCAT,0.307 ± 0.012
25,CCCTAATC,-0.0644 ± 0.02

row,Sequence,PBM E-score of 8-mer
1,CATGCCCA,-0.0982 ± 0.076
2,ACGAAAGG,-0.0612 ± 0.01
3,ATAAACGA,-0.135 ± 0.057
4,CAACGACG,0.0694 ± 0.038
5,AGCGTGTG,0.21 ± 0.06
6,AACCGTTG,0.148 ± 0.026
7,CGTGGACA,0.0466 ± 0.017
8,ACGGTCGA,-0.0241 ± 0.073
9,CGCATGCG,-0.047 ± 0.027
10,ACAGGGCC,-0.14 ± 0.03
11,CTACAGCC,-0.252 ± 0.016
12,CTAGGAAC,-0.0215 ± 0.064
13,AAAACTGC,0.0893 ± 0.035
14,AAAGCCGT,0.0766 ± 0.0087
15,CTGAATGA,-0.0898 ± 0.011
16,GCACGGGC,-0.0971 ± 0.075
17,ATCTTTTA,-0.00485 ± 0.06
18,ACGCGTCT,0.118 ± 0.014
19,GACGTCAA,0.0971 ± 0.011
20,GCAAGTGC,0.282 ± 0.021
21,AACCCTAA,-0.25 ± 0.026
22,ATAGAAGG,-0.00979 ± 0.046
23,AGCCCCTG,-0.3222 ± 0.0025
24,AGTGCCCG,0.0163 ± 0.049
25,CTGCGCTC,0.0242 ± 0.021

row,Sequence,PBM E-score of 8-mer
1,AACGTAAA,-0.162 ± 0.021
2,ATGATGTG,0.244 ± 0.0031
3,ATAGGTCC,-0.0911 ± 0.074
4,AGATTTTC,-0.0543 ± 0.051
5,CGTCAGAC,0.0903 ± 0.024
6,AACGGCGC,0.129 ± 0.017
7,CGTCCGAA,-0.15 ± 0.01
8,GTCTTTTA,-0.274 ± 0.026
9,CACGGCAG,0.156 ± 0.053
10,CACCTAAC,0.387 ± 0.018
11,CTGGTTTA,-0.0997 ± 0.028
12,TCTCGACA,0.281 ± 0.025
13,AGTACACA,0.128 ± 0.039
14,GCTTTCGA,0.00483 ± 0.021
15,CAACTGTA,0.0659 ± 0.076
16,CCACTTCG,0.193 ± 0.017
17,ATTGTTTC,0.00545 ± 0.088
18,ATGTCAGG,-0.167 ± 0.014
19,CCCGAGGA,-0.313 ± 0.024
20,CGACGCAG,-0.117 ± 0.065
21,TCCCGTAA,-0.116 ± 0.089
22,AGAGAAAG,0.0125 ± 0.053
